# Source: PubChem BioAssay AID488969 (Vanderbilt High Throughput Screening Facility, 2010)
# The full ranking holds about 110,000 compounds; the median of “z-score” is about -0.1, and the highest 2% start at about 2. This is one part of the list. The source made the active and inactive calls.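 How the source made its calls: active means z-score in the third read window above 3 or below -3; inactive means the rest.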
# Molecular target: Metabotropic glutamate receptor 8 (Rattus norvegicus) (UniProt P70579)
# UniProt P70579, sequence (P70579 whole entry, looked up): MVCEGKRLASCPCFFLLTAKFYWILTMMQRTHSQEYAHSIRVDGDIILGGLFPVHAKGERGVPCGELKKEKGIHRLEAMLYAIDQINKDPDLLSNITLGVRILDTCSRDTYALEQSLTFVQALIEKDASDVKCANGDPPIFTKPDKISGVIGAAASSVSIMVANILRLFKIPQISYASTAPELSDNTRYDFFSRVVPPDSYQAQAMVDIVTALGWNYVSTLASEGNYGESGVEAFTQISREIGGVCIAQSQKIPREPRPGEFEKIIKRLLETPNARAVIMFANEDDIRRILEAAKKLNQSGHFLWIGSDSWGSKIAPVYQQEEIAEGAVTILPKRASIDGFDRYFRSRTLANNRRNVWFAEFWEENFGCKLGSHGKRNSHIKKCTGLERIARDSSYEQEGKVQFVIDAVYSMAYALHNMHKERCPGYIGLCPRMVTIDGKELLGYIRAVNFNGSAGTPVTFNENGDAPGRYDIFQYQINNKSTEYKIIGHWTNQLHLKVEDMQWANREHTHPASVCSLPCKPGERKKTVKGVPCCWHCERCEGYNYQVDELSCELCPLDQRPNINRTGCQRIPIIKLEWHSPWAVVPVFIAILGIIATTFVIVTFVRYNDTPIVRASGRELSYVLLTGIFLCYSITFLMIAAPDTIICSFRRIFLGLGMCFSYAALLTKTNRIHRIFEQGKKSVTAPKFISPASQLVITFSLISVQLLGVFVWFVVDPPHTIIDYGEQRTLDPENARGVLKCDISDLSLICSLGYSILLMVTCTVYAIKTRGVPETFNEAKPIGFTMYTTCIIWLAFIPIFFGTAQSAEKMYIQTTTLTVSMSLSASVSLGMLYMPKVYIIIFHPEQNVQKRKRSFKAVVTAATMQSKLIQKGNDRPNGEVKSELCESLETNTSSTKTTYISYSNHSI
# Experiment: mGluR8 Gi/Go-coupled signaling modulation – cell-based, rat, thallium flux, HTS, primary screen (AID 488969)
# Conditions: HEK293 rat mGluR8, GIRK (G protein-gated inwardly rectifying potassium channel) thallium flux, FluoZin2; at 10 µM; stronger effect = higher value; submaximal glutamate (EC20) added with thallium
row,Compound,z-score
1,CCOC(=O)C1=C(Nc2ccccc2)CC(C)(O)C(C(=O)OCC)C1c1ccc(Br)cc1 (stereo not given),-0.457
2,COc1cc(C)c(Br)cc1S(=O)(=O)NCc1ccccc1,-0.159
3,CC(=O)c1sc2nc(C)cc(C)c2c1N,0.0834
4,O=C(Nc1ccccc1Cl)c1ccccc1Cl,-0.159
5,CCN1CCN(Cc2ccc(NC(=O)Nc3ccc(SC)cc3)cc2)CC1,0.0492
6,COc1cccc(-c2nnc(SCC(=O)N3CCCc4ccccc43)o2)c1,-0.911
7,COC(=O)c1ccccc1NC(=O)c1sc(N)nc1C,-0.519
8,O=C(Cc1ccccc1)Nc1cc(C(=O)c2ccccc2)ccc1N1CCOCC1,-0.465
9,CCOC(=O)C(NC(=O)c1ccccc1)(OCc1ccc(F)cc1)C(F)(F)F (stereo not given),0.14
10,Cc1cc([N+](=O)[O-])cc(C)c1OCC(=O)N/N=C/c1ccc(OC(=O)c2ccccc2Br)cc1,2.41
11,COCCCN(C(C)=O)c1nc(-c2ccc(OC)cc2)cs1,-0.575
12,CCCC1CC(C)(C(=O)Cn2[nH]c(=O)ccc2=O)OC1=O (stereo not given),-0.0181
13,COCCN1CN=C(Nc2nc3ccccc3o2)NC1,-0.0231
14,Nc1ccc(Oc2ccc(Cl)cc2)cc1,0.354
15,CCOC(=O)C1=C(C)N=C2SC(C)C(=O)N2C1c1ccc(OCC)c(OCC)c1 (stereo not given),0.125
16,COc1ccc(-c2ccc(-c3nnn(CC(C)=O)n3)cc2)cc1,0.259
17,Cc1nc2sccc2c(=O)n1-c1cccc(Cl)c1,-0.144
18,CC1CCCC(C)N1C(=O)Cn1cc(/C=C2/C(=O)Nc3ccccc32)c2ccccc21 (stereo not given),1.09
19,CN1CCN(C(=O)c2ccc(N(Cc3ccccc3Cl)S(C)(=O)=O)cc2)CC1,0.393
20,Cc1nn(C(=O)N2CCCCC2)c(C)c1CN1C(=O)c2ccccc2C1=O,-0.052
21,C/C(N)=C(/C#N)C(=O)COC(=O)c1cc(-c2cccc3ccccc23)nc2ccccc12,-0.0818
22,CC1CCCN(C/C(O)=C(\C#N)c2nc3ccccc3[nH]2)C1 (stereo not given),0.32

row,Compound,z-score
1,OCC#CCSc1nnc(-c2ccc(Br)cc2)o1,-0.144
2,O=C(CSc1nnc(Cc2cccs2)n1-c1ccccc1)Nc1ccc2c(c1)OCCO2,-0.251
3,CC(c1ccccc1)N1C(=O)CC(Sc2ncccc2C(=O)O)C1=O (stereo not given),0.14
4,O=C(c1ccccc1F)N1CCN(c2ccc([N+](=O)[O-])c3ncccc23)CC1,-0.43
5,COC(=O)c1ccccc1NC(=S)NC(=O)c1ccccc1C,1.1
6,CCOC(=O)C1=C(c2ccccc2)N=C2SCC(=O)N2C1c1ccc(OCC)c(OCC)c1 (stereo not given),-0.469
7,CC1CC(C)CN(CCCn2c(=S)[nH]c3ccccc3c2=O)C1 (stereo not given),active: 14.4
8,COc1ccc(CSCC(=O)N/N=C/c2ccc(OCC(=O)NCc3ccco3)cc2)cc1,-0.405
9,COc1ccc(/C=C(\C#N)C(=O)Nc2cccnc2)cc1,-0.0907
10,O=C(CSc1nnc(-c2ccc(Br)cc2)n1C1CCCCC1)N1CCCC1,-0.489
11,CCOc1ccc(N2Nc3n[nH]c(N)c3N2)cc1,-0.00338
12,Cc1ccc(-c2nnn(CC(=O)N(CC(=O)NCC3CCCO3)c3ccccc3)n2)o1 (stereo not given),-0.674
13,Cc1ccc(NC(=S)NCc2cccs2)cc1,-0.104
14,CCOC(=O)c1ccc(N2C(=O)CC(N3CCC(C(=O)OCC)CC3)C2=O)cc1 (stereo not given),-0.672
15,COc1ccc(-n2cnc3cc(NC(=O)c4ccco4)ccc32)cc1,-1.7
16,O=C(c1ccc2c(=O)n(C3CCCC3)c(=S)[nH]c2c1)N1CCc2ccccc21,active: 9.93
17,Cc1ccnc(Nc2nc(-c3c(C)nc4sccn34)cs2)c1,-0.978
18,COc1cccc(CNS(=O)(=O)c2cccc(S(=O)(=O)N3CCOCC3)c2)c1,0.606
19,O=C(OCc1ccccc1)c1cccc(-c2nnn(Cc3ccccc3)n2)c1,0.105
20,Cc1nc2oc3ccccc3c(=O)c2c(=O)n1Cc1ccccc1,1.14
21,COCCNC(=O)C(c1ccc(C)o1)N(Cc1ccccc1)C(=O)Cn1nnc2ccccc21 (stereo not given),0.875
22,CN1CC(=O)N(C)c2nc(Br)n(C)c2C1=O,-0.15

row,Compound,z-score
1,CC1CCCN(Cc2nc3c(c(=O)n(C)c(=O)n3C)n2CCc2ccccc2)C1 (stereo not given),-1.05
2,CCCn1c(SCC(=O)NCc2ccco2)nnc1C(C)C,-0.113
3,CCN(C(=O)CSc1nnnn1-c1ccccc1)c1c(N)n(Cc2ccccc2)c(=O)[nH]c1=O,-0.257
4,O=C(CSc1nnnn1-c1ccccc1)NC1CCCc2ccccc21 (stereo not given),-0.442
5,CC1CCN(C(=O)c2scc3c2OCCO3)CC1,-0.162
6,COc1ccccc1-c1c(C(F)(F)F)oc2cc(OC(=O)c3cccc([N+](=O)[O-])c3C)ccc2c1=O,0.22
7,CCOC(=O)c1[nH]c2ccccc2c1NC(=O)CC(C)(C)C,0.0735
8,Fc1ccc(-c2ccc(/C=N\n3cnnc3)o2)cc1Cl,0.0159
9,Cc1ccccc1OCC(=O)Nc1cccc(N(C)S(C)(=O)=O)c1,0.502
10,CCOc1ccc2nc(NC(=S)NCc3ccccc3)sc2c1,1.45
11,O=C(CN(C(=O)CSc1nc2ccccc2o1)c1ccccc1)NC1CCCCC1,-0.215
12,CCOc1ccc(NC(=O)CCC(=O)O)cc1,0.636
13,CCCn1c(SCC(=O)Nc2sc(C)c(C)c2C#N)nnc1C(C)C,-0.268
14,Cc1cc(NC(=O)c2ccccc2)ncc1NC(=O)c1ccco1,0.325
15,Brc1ccccc1/C=N/Nc1ccc2ccccc2n1,-0.236
16,COc1ccc(N(CC(=O)NCc2ccco2)S(C)(=O)=O)cc1OC,-0.139
17,COc1ccc(C2C(C(=O)NC(C)C)c3ccccc3C(=O)N2C)cc1OC (stereo not given),0.0574
18,COc1cc(NC(=O)CCc2ccccc2)nc(OC)n1,-0.243
19,COc1ccc(S(=O)(=O)N2CCN(CC(=O)Nc3cc(C(F)(F)F)ccc3Cl)CC2)cc1,-0.058
20,Cc1ccc(C2(c3ccc(C)cc3)CC2C(=O)Nc2ccc([N+](=O)[O-])cc2O)cc1 (stereo not given),-0.0102
21,Cc1cc(-c2ccccc2)nc(Oc2ccc(C(C)(C)C)cc2)c1S(C)(=O)=O,0.179
22,O=[N+]([O-])c1cccc(/C=N/n2c(-c3cccnc3)n[nH]c2=S)c1,-0.909

row,Compound,z-score
1,CCOC(=O)c1nnc(-c2ccccc2)nc1NCc1ccc(Cl)cc1,-0.291
2,COc1ccc(NC(=O)CN2CCCCC2)c([N+](=O)[O-])c1,-0.149
3,COc1ccc(OC)c(NC(=O)c2c(NC(=O)CNCc3ccco3)sc3c2CCC3)c1,-0.00757
4,CCOc1ccc2nc(NCCNC(=O)Nc3ccccc3)c(C#N)cc2c1,0.399
5,CCn1c(SCC(=O)N/N=C/C=C/c2ccccc2[N+](=O)[O-])nnc1-c1ccc(Cl)cc1,0.0288
6,COc1ccc(-c2cc(=NC(CC(C)C)C(=O)O)c3cc(C)ccc3o2)cc1 (stereo not given),-0.937
7,Cc1noc(C)c1S(=O)(=O)N(CCc1ccccc1)Cc1ccccc1,0.0661
8,O=C(CSc1nnc(-c2c[nH]c3ccccc23)o1)N1c2ccccc2CCc2ccccc21,-0.0356
9,CNC(=O)COC(=O)c1ccccc1Oc1ccccc1,-0.0504
10,O=C(Cc1ccccc1)N1CCN(C(=O)c2ccco2)CC1,-0.0691
11,CCN(CC)c1ccc2c(c1)oc(=O)c1c(Cl)cc(=O)oc12,-1.28
12,Cc1ccc(NC(=O)c2c(C)nn(-c3ccccc3)c2Cl)c(C)c1,-0.346
13,CSc1nc(Sc2ccc(Cl)cc2)c2ccccc2n1,0.0499
14,COc1ccc(N(C)C(=O)c2cnc(N3CCN(c4ncccn4)CC3)c3ccccc23)cc1,-0.865
15,CCc1nnc(NC(=O)c2cccc(OC)c2)s1,0.0121
16,CC(=O)C1=C(C)NC(=O)NC1c1ccccc1 (stereo not given),0.833
17,Oc1csc(Cc2nc(-c3ccc4ccccc4c3)cs2)n1,-0.78
18,Cc1ccc(-c2cc(-c3nnc(SCC(=O)N(C)CCC#N)n3N)c3ccccc3n2)cc1,0.306
19,O=C(CCn1c2c(c3ccccc31)CCCC2)NNC(=O)c1cccc([N+](=O)[O-])c1,-0.0963
20,COc1ccc(N2CCN(C(=O)c3ccncc3)CC2)cc1,0.222
21,COC(=O)c1ccc(CSc2ccccc2C)o1,-0.171
22,Cc1nc(NC(=O)/C=C/c2ccc(Cl)cc2Cl)sc1C(=O)N(C)C,-0.0845

row,Compound,z-score
1,CC1(C)CC(=O)C=C(OC(=O)c2ccc(Cl)cc2)C1,-0.505
2,O=C(CSc1ncn[nH]1)N1N=C2/C(=C/c3ccco3)CCCC2C1c1ccco1 (stereo not given),-0.93
3,C=C(C)Cn1c(Sc2nc3ccccc3[nH]2)nc2c1c(=O)[nH]c(=O)n2C,1.1
4,COc1ccccc1S(=O)Cc1ccc(C(=O)O)o1 (stereo not given),-0.0279
5,CCC(=O)N(Cc1ccc(S(N)(=O)=O)cc1)C1CC(=O)N(c2ccc(OC)cc2)C1=O (stereo not given),0.806
6,Cc1ccc(S(=O)(=O)CCc2ccccn2)cc1,-0.299
7,COc1ccc(Cc2nc3ccc(S(N)(=O)=O)cc3[nH]2)cc1OC,0.43
8,COCCCNC(=O)CNC(=S)N(Cc1cc(OC)c(OC)c(OC)c1)C1CCCC1,0.279
9,CCOP(=O)(O)c1ccccc1OCCOc1ccccc1P(=O)(O)OCC,-0.0166
10,CNC(=O)CC1C(=O)N(Cc2ccccc2)C(=S)N1NC(=O)c1cccc(F)c1 (stereo not given),-0.202
11,CNC(=S)NNC(=O)Cn1ccc(C)n1,-0.17
12,O=C(NCC1COc2ccccc2O1)c1ccco1 (stereo not given),-0.309
13,CCCC(=O)Nc1cc(-c2nc3ncccc3o2)ccc1C,0.726
14,CCOC(=O)N1CCN(c2c(NCCN3CCN(Cc4ccccc4)CC3)c(=O)c2=O)CC1,-0.338
15,Cc1occc1C(=O)NNC(=O)COc1ccc(Br)cc1Br,1.12
16,CC(=O)c1c(Nc2ccc3c(c2)OCCO3)oc(C)cc1=O,0.101
17,CCCCc1c(O)nc2sc3cc(OC)ccc3n2c1=O,1.06
18,CCC(=O)Nc1cccc(-c2nc3ccccc3c(=O)o2)c1,-0.784
19,Cc1ccc(NC(=S)N/N=C/c2ccc(Cl)c([N+](=O)[O-])c2)cc1,-0.0758
20,CCc1ccc2c(c1)/C(=C/C(=O)c1cccs1)C(=O)N2,-0.314
21,Cc1ccccc1CSCc1nc2ccccc2[nH]1,-0.127
22,COc1ccc(CCNC(=S)NC(=O)c2ccccc2)cc1OC,0.202
